Test results reported in the supplement of paper PMC4166925.
± gives the standard deviation of the averaged measurements. In all, about 33,000 sequences were measured (“E-score (dimensionless, -0.5 to 0.5)”: median about -0.049, highest 2% from about 0.37 on). Some of the results follow.

Tested on: T1, PmTbr T-box DNA-binding domain (GST fusion)
T1 sequence: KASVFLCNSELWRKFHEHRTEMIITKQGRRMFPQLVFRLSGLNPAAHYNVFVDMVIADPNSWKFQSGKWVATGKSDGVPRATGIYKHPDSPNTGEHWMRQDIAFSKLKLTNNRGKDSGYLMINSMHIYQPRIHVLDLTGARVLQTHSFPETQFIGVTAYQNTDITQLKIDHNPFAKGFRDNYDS
Assay: PBM E-score of 8-mer (E-score (dimensionless, -0.5 to 0.5)); Tbr is Tbrain of the sea star Patiria miniata (Pm) or the sea urchin Strongylocentrotus purpuratus (Sp); higher = stronger binding preference; most listed sequences are background and not binding sites
Conditions: the construct has about 5 more residues each side
Outline: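 Using the Universal PBM Analysis Suite, every ungapped 8-mer received an enrichment E-score averaged over duplicate arrays. Probe intensities came from double-stranded Universal Agilent oligonucleotide arrays incubated with 200 nM GST-fused Tbr T-box DNA-binding domain in PBS (pH 7.5). That protein was expressed in BL21 E. coli at 20 °C and purified by glutathione affinity chromatography.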

Point of comparison: CGAAAGTA, “PBM E-score of 8-mer” value 0.0451 ± 0.011. Against it:
- TATGGTCA — lower, -0.104 ± 0.036
- CCGGCAGG — lower, -0.0858 ± 0.081
- CCTTTGAG — lower, -0.172 ± 0.005
- CTCATATC — within error, -0.0155 ± 0.095
- AGTTTAAA — within error, 0.012 ± 0.076
- ATGAGGGA — lower, -0.184 ± 0.032
- AGATGTTG — lower, 0.0167 ± 0.014
- ACAGTTAT — within error, 0.125 ± 0.093
- AGCTAGCA — within error, 0.0818 ± 0.054
- AGGTCGGG — lower, -0.193 ± 0.019
- GCAGAAGC — lower, -0.26 ± 0.063
- GACGCTCA — within error, -0.0055 ± 0.1
- GACCCCAA — lower, -0.0833 ± 0.063
- AATGCAGT — lower, -0.145 ± 0.059
- CCATGTGC — higher, 0.19 ± 0.051
- AGCCAGGG — lower, -0.226 ± 0.009
- ACTGGATG — lower, -0.025 ± 0.017
- AGCCTCTC — lower, -0.123 ± 0.0076
- CAGCAGCG — lower, -0.151 ± 0.0014
- CCTGCGAC — higher, 0.173 ± 0.046
- CCACACCG — higher, 0.134 ± 0.063
- CGTAAGCA — lower, -0.0733 ± 0.049
- AGATAAAC — lower, -0.0681 ± 0.042
- CAGTCCAG — lower, -0.123 ± 0.074
- CGGGCCAG — lower, -0.182 ± 0.023
- CTTGGGGC — higher, 0.128 ± 0.069
- AAGACATG — within error, 0.0276 ± 0.03
- CAGCGCAA — lower, -0.122 ± 0.014
- GGCCCAAA — lower, -0.257 ± 0.012
- ACTGGACC — lower, -0.204 ± 0.071
- ATCATGAA — lower, -0.223 ± 0.019
- GAATGTGC — higher, 0.243 ± 0.0084
- AAAGTCAG — lower, -0.353 ± 0.013
- CGCATTAG — lower, -0.0871 ± 0.073
- CTTACGAC — lower, -0.0955 ± 0.067
- AAAACAAG — lower, -0.186 ± 0.046
- CGTGCGAG — higher, 0.358 ± 0.018
- CAAACTGC — lower, -0.00734 ± 0.029
- AGCACGTA — higher, 0.226 ± 0.029
- GCCCCTAA — lower, -0.178 ± 0.064
- CAGTGTGG — higher, 0.249 ± 0.013
- ACGCGTAC — higher, 0.148 ± 0.027
- GATACGCC — lower, -0.0583 ± 0.029
- AAGCGCTA — higher, 0.314 ± 0.018
- AATTAACT — within error, 0.0784 ± 0.093
- AAGCGTAT — lower, -0.125 ± 0.0088
- CTCTACGC — lower, -0.19 ± 0.053
- CAGCCTAC — higher, 0.215 ± 0.055
- CGCGGGCA — lower, -0.0525 ± 0.049
- CCTCGCCG — higher, 0.147 ± 0.064
- ACGGGCGC — within error, 0.0455 ± 0.05
- ATATGCTG — lower, -0.123 ± 0.015
- CAAGATGC — lower, -0.0815 ± 0.046
- GCAATACA — lower, -0.139 ± 0.021
- CCCCCATA — lower, -0.167 ± 0.043
- GCCCGTTA — higher, 0.122 ± 0.02
- CAAGTATC — lower, -0.0543 ± 0.007
- ACATCGCA — higher, 0.229 ± 0.0078
- CATCAGGC — within error, -0.0446 ± 0.083
- GCTTCGTA — lower, -0.125 ± 0.055
- ATAAAATC — within error, 0.039 ± 0.029
- ACGAGGTG — higher, 0.4446 ± 0.0042
- AGTCACTA — higher, 0.124 ± 0.006
- TCACATAA — higher, 0.15 ± 0.038
- ACAATGTA — within error, 0.021 ± 0.066
- ATCGTTAC — within error, 0.0317 ± 0.02
- GCCCGAGC — lower, -0.269 ± 0.14
- GAGAGTAA — higher, 0.105 ± 0.0077
- ATAGGTTG — lower, -0.0124 ± 0.03
- ACCACGCT — within error, -0.0719 ± 0.13
- CTTTGTTC — lower, -0.135 ± 0.068
- AATACGGA — lower, -0.11 ± 0.055
- GGCGCCTA — within error, 0.0892 ± 0.039
- AACGAGAG — lower, -0.1 ± 0.057
- TAGAGCTA — lower, -0.124 ± 0.069
- ATGGTACG — lower, -0.157 ± 0.1
- GGTCTCAC — higher, 0.335 ± 0.0073
- AGATTAAT — within error, -0.0305 ± 0.072
- CCCACGGA — lower, -0.345 ± 0.0061
- AAGGGTGT — higher, 0.399 ± 0.018
- AATTCGTG — within error, -0.0689 ± 0.12
- ATGCACAC — higher, 0.08762 ± 0.00051
- CAAAGCGA — lower, -0.111 ± 0.051
- CCTTGCTC — lower, -0.013 ± 0.013
- CATGATAG — lower, -0.167 ± 0.002
- CGAACTTC — lower, -0.0508 ± 0.016
- CTAAGCGC — lower, -0.0519 ± 0.026
- CAGCCTGC — within error, 0.00534 ± 0.055
- AAGGACGG — lower, -0.3 ± 0.026
- ACAAGCAA — within error, 0.0186 ± 0.025
- CCGTTCCG — lower, -0.175 ± 0.008
- CGATGTAC — lower, -0.063 ± 0.057
- AGACCCAG — lower, -0.0972 ± 0.0069
- GTCTACAA — lower, -0.0649 ± 0.092
- ACCCGCCA — higher, 0.263 ± 0.047
- ACCCCAGA — lower, -0.0903 ± 0.012
- AGCTGCCG — lower, 0.0115 ± 0.018
- GAATAATC — lower, -0.244 ± 0.06
- CTCGGACC — lower, -0.18 ± 0.019
- CAGATTAA — lower, -0.0974 ± 0.025
- AACCGTAA — lower, -0.205 ± 0.0074
- GTCTGAAA — lower, -0.0222 ± 0.05
- AAGCCAGG — lower, -0.1694 ± 0.00068
- ATCCCCGC — lower, -0.0244 ± 0.024
- GATTATAC — lower, -0.0102 ± 0.031
- ATAGGTGA — higher, 0.345 ± 0.028
- CTACTCGC — higher, 0.212 ± 0.026
- TGCTGCAA — within error, 0.00697 ± 0.029
- CCGACCAG — lower, -0.197 ± 0.015
- CAGAGCAA — lower, -0.279 ± 0.037
- CCGGAACC — lower, -0.294 ± 0.0062
- CTGGTGCA — lower, -0.156 ± 0.026
- CATGACTC — lower, -0.181 ± 0.016
- TGGCGGAA — lower, -0.0225 ± 0.014
- TCCCCCAA — lower, -0.0479 ± 0.0075
- CTGTGATC — higher, 0.196 ± 0.071
- ACCGGAAA — lower, -0.089 ± 0.0078
- GGATTTAA — lower, -0.261 ± 0.065
- AAATCTAT — lower, -0.164 ± 0.048
- GCCCATAC — lower, -0.085 ± 0.0041
- CTTTAATC — within error, 0.0508 ± 0.018
- GACTGTCA — higher, 0.128 ± 0.015
- CAAGGGAA — lower, -0.27 ± 0.084
- TATAGCAA — lower, -0.0376 ± 0.033
- CAGAAGTC — within error, 0.0457 ± 0.073
- GTCTTAAA — lower, -0.119 ± 0.015
- ACCGCGCC — lower, -0.0519 ± 0.077
- AGTGAACC — lower, -0.209 ± 0.0099
- CACGAAAG — lower, -0.0822 ± 0.001
- CATACGTC — lower, -0.199 ± 0.017
- ATAATCTA — lower, -0.0549 ± 0.025
- GGCGTCCC — lower, -0.289 ± 0.075
- CGCCCTAA — higher, 0.0849 ± 0.0056
- CAGCCAGC — lower, -0.171 ± 0.0073
- ATAAGACC — lower, -0.00427 ± 0.0084
- ACCGGCCT — lower, -0.113 ± 0.083
- CGCCGGAA — higher, 0.11 ± 0.03
- AACCTTGA — within error, 0.0631 ± 0.055
- GACACCAA — higher, 0.345 ± 0.0047
- CTGTCCCC — lower, -0.125 ± 0.058
- GGTCTGAC — lower, -0.028 ± 0.0057
- CTGTCCAA — within error, 0.0281 ± 0.015
- CTTACTTC — higher, 0.108 ± 0.042
- GGGCGCCA — higher, 0.106 ± 0.037
- CCACCCTA — higher, 0.0728 ± 0.0043
- GACTCGGA — lower, -0.0623 ± 0.05
- CCATTTCG — higher, 0.142 ± 0.013
- CCGATTAG — within error, -0.0218 ± 0.091
- AACATAAC — within error, 0.0694 ± 0.022
- CCATTTAG — within error, 0.0961 ± 0.098
- ATCCTGGG — lower, -0.241 ± 0.038
- TCTTGTAA — lower, -0.0426 ± 0.056
- CACCTGGA — higher, 0.366 ± 0.025
- CTCGGTTA — lower, -0.127 ± 0.016
- ACGGAAGG — within error, 0.0668 ± 0.038
- CTATCAAA — lower, -0.0263 ± 0.041
- TCAAGCCA — lower, -0.0989 ± 0.067
- CTCCGGGC — lower, -0.166 ± 0.032
- CCCCGAGC — lower, -0.011 ± 0.026
- AGATGCTG — lower, -0.149 ± 0.035
- GAAAGGTA — lower, -0.0552 ± 0.022
- GCGTGCCC — lower, -0.343 ± 0.035
- CCTACGAG — lower, -0.0896 ± 0.0048
- CCTAGAGA — lower, -0.0665 ± 0.085
- GCAGCTGC — lower, -0.0758 ± 0.015
- TCGGCGCA — lower, -0.241 ± 0.034
- AAAAACCC — lower, -0.0589 ± 0.081
- CTAGTGTA — within error, 0.0738 ± 0.061
- GATGCTCC — lower, -0.157 ± 0.044
- GTTTCATA — lower, -0.259 ± 0.04
- CGCAACGA — within error, -0.0323 ± 0.071
